Numbering of substitutions follows the chain as printed. Names may count otherwise.
Key:
[1] = target: T1, human PSMA (in house produced) (human, UniProt Q04609 44-750, limits assumed); assay: ELISA, pH 6.0 and pH 7.4
T1 construct: Biotinylated

[2] = target: T2, human FcRn: extracellular domain of human αFcRn in complex with human β2-microglobulin, soluble, produced in … (human, UniProt P55899 24-290; P16213 21-119); assay: ELISA, Z-ABD captured on anti-ABD, biotinylated human FcRn titrated, pH 7.4
T2 construct: Ig kappa leader cleaved upon secretion; Biotinylated for ELISA, amine coupled for Biacore; also called hFcRn; not shown: C-terminal GS-linker and FLAG tag; C-terminal GS-linker and His6 tag
Procedure: (§1) After washing as described above, 50 μl ImmunoPure TMB substrate (Thermo Scientific, cat. no. 34021) was added to the wells and the plates were treated according to the manufacturer's recommendations.

[3] = target: T2, human FcRn: extracellular domain of …; assay: ELISA, Z-ABD captured on anti-ABD, biotinylated human FcRn titrated, pH 6.0
Procedure: as §1

[4] = target: T2, human FcRn: extracellular domain of …; assay: Biacore, human FcRn immobilized, pH 6.0, Langmuir 1:1
Procedure: (§2) One flow cell surface on the chip was activated and deactivated for use as blank during analyte injections.
Kinetic constants were calculated from the sensorgrams using the Langmuir 1:1 model of BiaEvaluation software 4.1 (GE Healthcare).

[5] = target: T3, mouse FcRn, soluble, produced in mouse 3T3 cells (mouse, UniProt Q61559 22-290; P01887 21-119); assay: Biacore 3000, mFcRn immobilized, one site saturation, pH 7.4
T3 construct: also called mFcRn; murine FcRn
T3 sequence: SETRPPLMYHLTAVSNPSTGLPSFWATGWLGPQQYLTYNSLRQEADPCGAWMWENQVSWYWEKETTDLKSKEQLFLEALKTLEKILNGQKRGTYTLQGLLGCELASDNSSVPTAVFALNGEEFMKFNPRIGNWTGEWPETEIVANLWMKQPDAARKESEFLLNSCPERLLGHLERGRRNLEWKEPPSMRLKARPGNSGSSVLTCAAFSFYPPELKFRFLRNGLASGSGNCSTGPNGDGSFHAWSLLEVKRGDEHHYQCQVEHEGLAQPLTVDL
T3 sequence (b2m): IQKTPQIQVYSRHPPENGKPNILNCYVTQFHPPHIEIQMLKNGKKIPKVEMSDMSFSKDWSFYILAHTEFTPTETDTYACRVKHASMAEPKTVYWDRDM
Procedure: (§3) In a separate experiment, the affinity of the interactions of Z variants to hFcRn (SEQ ID NO:1065) and mFcRn (SEQ ID NO:1070), respectively, was measured at both pH 6.0 and pH 7.4 on a Biacore 3000 instrument (GE Healthcare). hFcRn and mFcRn were produced essentially as described in Example 1 but using mouse 3T3 cells instead of human SKOV-3 cells for production of mFcRn, and immobilized on separate flow cells on a CM5 chip in acetate buffer at pH 4.65. The immobilization level was approximately 1000 RU for both receptors. A reference flow cell was created by activation and deactivation. 0.005% PCT pH 6.0 or 7.4 was used as running buffer and for dilution of the analytes. All analyses were performed at 25° C. […] The affinities were derived using GraphPad Prism 5 software, using a one site binding saturation model.

[6] = target: T3, mouse FcRn, soluble, produced in mouse …; assay: Biacore 3000, mFcRn immobilized, one site saturation, pH 6.0
Procedure: as §3

[7] = target: T4, human FcRn (Biorbyt, cat. no. orb84388) (human, UniProt P55899 24-297; P61769 21-119, limits assumed); assay: AlphaLISA blocking of IgG (Roactemra) binding to biotinylated human FcRn, pH 6.0
T4 construct: Bought protein; Biotinylated in AlphaLISA and ELISA; also called biotinylated human FcRn
Procedure: Stepwise serial dilutions 1:3 of His-tagged Z variants to final concentrations of 250 nM to 38 pM were made in a 384-well plate (Perkin Elmer, cat. no. G6005350) and incubated for 45 min with 10 nM biotinylated human FcRn (Biorbyt, cat. no. orb84388; biotinylated essentially as described in Example 2) in AlphaLISA buffer (Perkin Elmer, cat. no. AL000F) adjusted to pH 6.0 using HCl. IgG-coated Acceptor beads were added to a final concentration of 10 μM and incubated for 45 min. Finally, streptavidin coated Donor beads (Perkin Elmer, cat. no. 6772002) were added to a final concentration of 40 μg/ml and incubated for 30 min. All incubations were performed at RT in the dark. The plate was analyzed in the EnSpire instrument and the IC50 values were calculated using GraphPad Prism 5.

[8] = target: T2, human FcRn: extracellular domain of …; assay: Biacore, human FcRn immobilized, 250 nM, pH 6.0
Source text: as §2

[9] = target: T4, human FcRn (Biorbyt, cat. no. orb84388); assay: Biacore, human FcRn (Biorbyt) immobilized, pH 6.0
Source text: as §2

[10] = target: T5, mouse FcRn-eGFP on transduced HeLa cells (with mB2M) (mouse, UniProt Q61559 22-365; P01887 21-119); assay: flow cytometry, Alexa647 labeled Z variant, mFcRn-eGFP HeLa cells, pH 6.0
T5 construct: Amino acids 1-369 of mFcRn with the original signal peptide; cells fixed and permeabilised with saponin; also called mFcRn-eGFP; mFcRn; not shown: eGFP fused at the cytoplasmic tail
T5 sequence: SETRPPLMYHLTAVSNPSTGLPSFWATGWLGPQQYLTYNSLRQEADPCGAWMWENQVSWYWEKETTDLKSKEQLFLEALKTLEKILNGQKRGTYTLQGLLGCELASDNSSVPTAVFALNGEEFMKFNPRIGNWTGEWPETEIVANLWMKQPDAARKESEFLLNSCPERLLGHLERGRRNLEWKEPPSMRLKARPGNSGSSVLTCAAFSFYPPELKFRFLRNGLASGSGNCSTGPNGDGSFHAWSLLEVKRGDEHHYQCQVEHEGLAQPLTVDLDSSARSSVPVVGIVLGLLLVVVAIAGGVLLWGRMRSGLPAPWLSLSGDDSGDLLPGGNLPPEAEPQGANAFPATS
T5 sequence (b2m): T3 sequence (b2m)

[11] = target: T2, human FcRn: extracellular domain of …; assay: Biacore, human FcRn immobilized, pH 6.0

T4 sequence (P55899 24-297 limits assumed, chain 1 of 2): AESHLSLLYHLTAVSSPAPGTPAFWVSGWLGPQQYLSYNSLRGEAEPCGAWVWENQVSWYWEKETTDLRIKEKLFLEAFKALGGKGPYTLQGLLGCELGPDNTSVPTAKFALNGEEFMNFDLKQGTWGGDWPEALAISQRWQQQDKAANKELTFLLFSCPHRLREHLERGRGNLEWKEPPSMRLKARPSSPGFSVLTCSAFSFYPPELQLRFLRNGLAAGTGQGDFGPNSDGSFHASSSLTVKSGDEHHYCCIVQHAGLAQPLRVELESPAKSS
T4 sequence (P61769 21-119 limits assumed, chain 2 of 2, further chain): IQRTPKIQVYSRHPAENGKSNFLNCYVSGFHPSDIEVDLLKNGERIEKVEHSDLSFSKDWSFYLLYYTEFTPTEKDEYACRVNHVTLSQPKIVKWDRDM
T1 sequence (Q04609 44-750 limits assumed): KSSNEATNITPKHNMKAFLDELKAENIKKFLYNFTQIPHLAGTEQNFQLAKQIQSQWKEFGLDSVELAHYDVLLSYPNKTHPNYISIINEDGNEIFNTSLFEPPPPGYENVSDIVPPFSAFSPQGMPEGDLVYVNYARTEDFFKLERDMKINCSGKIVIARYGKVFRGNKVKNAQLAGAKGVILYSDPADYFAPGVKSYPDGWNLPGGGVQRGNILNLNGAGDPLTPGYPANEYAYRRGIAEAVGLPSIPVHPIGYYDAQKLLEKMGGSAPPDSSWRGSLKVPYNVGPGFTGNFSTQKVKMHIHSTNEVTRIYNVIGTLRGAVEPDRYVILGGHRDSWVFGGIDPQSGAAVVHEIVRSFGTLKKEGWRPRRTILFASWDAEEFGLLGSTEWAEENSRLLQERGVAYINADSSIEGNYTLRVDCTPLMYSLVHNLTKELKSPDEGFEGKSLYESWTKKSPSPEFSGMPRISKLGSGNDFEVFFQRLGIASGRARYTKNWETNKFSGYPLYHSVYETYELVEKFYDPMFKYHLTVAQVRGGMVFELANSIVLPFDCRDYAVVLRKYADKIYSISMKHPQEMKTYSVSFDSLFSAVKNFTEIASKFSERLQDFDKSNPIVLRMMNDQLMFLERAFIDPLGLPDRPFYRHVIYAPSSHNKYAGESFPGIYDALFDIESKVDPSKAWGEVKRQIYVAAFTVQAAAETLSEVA

B1: Z10109-ABD fusion (designed binder)
chain: AQHDEALEVDAKYAKEANTAAHEIRWLPNLTFDQRVAFIRKLWDDPSQSSELLSEAKKLNDSQAPKVDYVLAEAKVLANRELDKYGVSDYYKNLINNAKTVEGVKALIDEILAALPYVPG
notes: domain: GA3; periplasmic Z-ABD fusion
binding result [1]: no binding (tested: 2 µg/ml)
Kd [2]: 23.9 nM

B2: Z10193-ABD fusion (designed binder)
chain: B1 chain with A17W, N18M, T19R, R40H, W43E
notes: as for B1
binding result [1]: no binding (tested: 2 µg/ml)
Kd [3]: 2.3 nM
Kd [2]: 25.9 nM

B3: His6-tagged Z07918 (designed binder)
chain: MGSSHHHHHHLQVDAKYAKEQDAAAHEIRWLPNLTFDQRVAFIHKLADDPSQSSELLSEAKKLNDSQAPKVD
notes: also called His6-Z07918
Kd [4]: 16 nM
Kd [5]: > 500 nM
Kd [6]: 90 nM

B4: His6-tagged Z07960 (designed binder)
chain: B3 chain with Q21F, D22E, A23S, F36Y, A47S
IC50 [7]: 42 nM
Kd [5]: > 5000 nM
Kd [6]: 350 nM

B5: His6-tagged Z10152 (designed binder)
chain: B3 chain with Q21E, A23V, D37N, V40A, H44D, A47L
binding result [8]: binds

B6: His6-tagged Z10161 (designed binder)
chain: B3 chain with Q21S, D22G, A23Y, A25V, H44N, A47Q
binding result [8]: binds

B7: His6-tagged Z10193 (designed binder)
chain: B3 chain with Q21W, D22M, A23R, A47E
IC50 [7]: 12 nM
Kd [4]: 22 nM
Kd [5]: > 500 nM
Kd [6]: 95 nM

B8: His6-tagged Z13577 (designed binder)
chain: B3 chain with Q21W, D22H, A23Q, A47R
Kd [9]: 13 nM
koff [9]: 0.004 s⁻¹
kon [9]: 300000 M⁻¹ s⁻¹
IC50 [7]: 12 nM

B9: His6-tagged Z13621 (designed binder)
chain: B3 chain with Q21A, A25G, A47R
Kd [9]: 6 nM
koff [9]: 0.0037 s⁻¹
kon [9]: 640000 M⁻¹ s⁻¹
IC50 [7]: 3.2 nM

B10: His6-tagged Z07930 (designed binder)
chain: B3 chain with Q21S, A23S, A25V, A47L
IC50 [7]: 42 nM
binding result [10]: binds

B11: Z03638-PP013 (negative control) (designed binder)
chain: AEAKYAKELGWATWEIFNLPNLTGVQVKAFIDKLRDDPSQSSELLSEAKKLNDSQAPKGAPGGGGSGGGGSGGGGSGGGGSTSLAEAKEAANAELDSYGVSDFYKRLIDKAKTVEGVEALKDAILAALP
notes: also called [Z03638]-GAP(G4S)4TS-[PP013]; PP013-Z03638 negative control
binding result [11]: no binding (tested: 40 nM, 160 nM and 640 nM)

From patent US20160031967A1 (Affibody, published 2016)
